PubChem BioAssay AID1745845 (National Center for Advancing Translational Sciences (NCATS), 2022)
Several values for one entry are separate records, joined by “and”; a condition that tells them apart may be missing. Identical values can stand only once. Hit rate of the full screen: of about 360,000 compounds, about 2,600 (0.72%) were called active. This list was built around the results that the source calls inconclusive (neither active nor inactive); the mix of calls is not that of the screen. Calls follow the shape of the dose curve; as a rule, active = well fitted inhibition curve with a large enough effect; inconclusive = small, poorly fitted or top-dose-only effect; inactive = no such curve, though single readings can be large or run the other way. Potencies beside an inconclusive call are fits to weak or partial responses and may not hold up.

Assay: Primary qHTS for Inhibitors of ATXN expression; also: nearly all actives have a fitted effect of over 55% in size
Settings: HEK-293 ATXN2-luciferase reporter, luminescence, 24 h; activity change, negative = inhibition: at 57 µM (top of the series)
Procedure, shortened: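 qHTS (up to 57 uM final) was run with 24 h compound exposure of reporter cells at 37 °C. Each well was multiplexed: SteadyGlo luminescence measured ATXN2-luciferase expression after a fluorogenic Gly-Phe-AFC viability readout (25 uM final).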
% is scaled to controls: 0 for no effect and ±100 for the full control effect; potency is read from the fitted curve at half-maximal effect; tags tell the direction and shape of the fitted curve.

SMILES	Potency	activity change, negative = inhibition
CC(C)(C)C(=O)Nc1ccc(C(=O)N/N=C/c2ccccc2OC(=O)c2ccc(Cl)cc2)cc1	inconclusive: 10 µM [inhibitor, partial curve]	
COc1ccc(CCN2CC(C(=O)N3CCN(C(C)=O)CC3)CCC2=O)cc1 (configuration not stated)		inactive: 4.48%
O=C(NCc1ccccc1)C1=C[C@@H](c2csc3ccccc23)C[C@@H](OCCCCO)O1	active: 5.62 µM	
Cc1ccc(S(=O)(=O)c2nc(-c3ccco3)oc2SCc2ccccc2Cl)cc1		inactive: -6.51%
N#Cc1ccc(C(=O)Nc2nnc(-c3cccs3)o2)cc1	inconclusive: 28.2 µM [inhibitor, single point]	
Cc1nc(-c2cccnc2)sc1C(=O)Nc1cccc(C(F)(F)F)c1	inconclusive: 28.2 µM [inhibitor, single point]	
Cc1cc(C)c2c(N)c(C(=O)Nc3ncc(C)s3)sc2n1	active: 2.51 µM	
CC1=C(C(=O)Nc2ccc(C)cc2)C(c2ccc(Cl)cc2)n2nnnc2N1 (configuration not stated)	inconclusive: 35.5 µM [inhibitor, single point]	
CC(C)(C)c1ccc(-c2csc(NC(=O)CN3C(=O)NC4(CCCCC4)C3=O)n2)cc1	inconclusive: 35.5 µM [inhibitor, partial curve, poor fit]	
Cc1ccc(CN2CCN(/N=C/c3ccc(C(=O)O)cc3)CC2)cc1		inactive: 5.79%
CCOC(=O)C(C(C)=O)c1c(Br)c(O)c(O)c2c(C(=O)c3ccc(C)cc3)coc12 (configuration not stated)	active: 14.1 µM	
CCC(C)[C@H]1CNC(=S)N1CCC12CC3CC(CC(C3)C1)C2 (some centres not stated)	inconclusive: 10 µM [inhibitor, partial curve, poor fit]	
CCC1=C[C@@H]2CN(C1)Cc1c([nH]c3ccccc13)[C@@](C(=O)OC)(c1cc3c(cc1OC)N(C)[C@@H]1[C@@](O)(C(=O)OC)[C@H](OC(C)=O)[C@]4(CC)C=CCN5CC[C@]31[C@@H]54)C2	inconclusive: 0.544 µM [inhibitor, full curve]	
CCOC(=O)c1ccccc1NS(=O)(=O)c1ccc(OCC)cc1	inconclusive: 17.8 µM [inhibitor, partial curve, poor fit]	
COc1ccc2c(Cl)c(C(=O)N/N=C/c3ccc4c(c3)OCO4)sc2c1	inconclusive: 31.6 µM [inhibitor, single point]	
Cc1cc(NC(=O)CSc2nc(C(C)C)nc3c2c(=O)n(C)c(=O)n3C)no1		inactive: -11.9%
O=C(CSc1nc(=O)n(Cc2ccccn2)c2c1CCC2)Nc1cccc(Cl)c1	inconclusive: 22.4 µM [inhibitor, single point]	
COc1ccc(C(=O)N2CCCC(c3ccccc3)=N2)cc1		inactive: 1.08%
COc1cc2c(cc1OC)C(c1cccc([N+](=O)[O-])c1)NC(=O)C2 (configuration not stated)		inactive: -2.63% [at 11.3 µM]
CC(/C=C1\SC(=O)N(CC(=O)Nc2cccc(O)c2)C1=O)=C\c1ccccc1		inactive: -7.85%
Cc1ccc(S(=O)(=O)Oc2ccccc2/C=N/NC(=O)c2c(Cl)cnn2C)cc1		inactive: 7.45%

SMILES	Potency	activity change, negative = inhibition
COc1ccccc1NC(=O)Cc1csc(NC(=O)c2ccccc2)n1	inconclusive: 35.5 µM [inhibitor, single point]	
Cc1ccc(C(=O)Nc2ccc(CC(=O)O)cc2)o1		inactive: -18.8%
Cc1ccc2c(CC(=O)Nc3ccc(S(=O)(=O)N4CCCC(C)C4)cc3)coc2c1 (configuration not stated)	inconclusive: 31.6 µM [inhibitor, single point]	
Cc1ccc(S(=O)(=O)Nc2nc3ccccc3nc2N2CCN(c3ccccc3F)CC2)cc1	inconclusive: 20 µM [inhibitor, partial curve, poor fit]	
CC(C)c1nc(CN(C)C(=O)N[C@H](C(=O)N[C@@H](Cc2ccccc2)C[C@H](O)[C@H](Cc2ccccc2)NC(=O)OCc2cncs2)C(C)C)cs1	active: 27.3 µM and inconclusive: 22.4 µM [inhibitor, partial curve, poor fit]	
Cc1nc(NC(=O)c2ccco2)sc1C(=O)O		inactive: -8.71%
CCOC(=O)c1ccc(NC(=S)Nc2ccc(Cl)cn2)cc1	inconclusive: 0.0067 µM [inhibitor, full curve, poor fit]	
Cc1nn(Cc2ccc(Cl)cc2)c(C)c1NC(=O)CSc1nc2c(c(C(F)(F)F)n1)CCc1ccccc1-2	inconclusive: 31.6 µM [inhibitor, partial curve, poor fit]	
COc1ccc2nc(C)cc(N/N=C/c3ccc(F)cc3)c2c1	inconclusive: 25.1 µM [inhibitor, single point]	
COc1cccc(C(c2nnnn2C2CCCC2)N2CCN(C/C=C/c3ccccc3)CC2)c1OC (configuration not stated)	inconclusive: 28.2 µM [inhibitor, single point]	
COc1cc2c(cc1OC)C(C)N(C(=O)c1cc3ccccc3o1)CC2 (configuration not stated)	inconclusive: 17.8 µM [inhibitor, partial curve]	
O=C(CC(O)(C(F)(F)F)C(F)(F)F)Nc1ccc(Cl)c(Cl)c1	inconclusive: 2.51 µM [inhibitor, partial curve, poor fit]	
Cc1ccccc1OCCSc1nc2ccc(NC(=O)c3ccco3)cc2s1	inconclusive: 35.5 µM [inhibitor, partial curve, poor fit]	
COc1ccccc1OCCNCC(O)COc1cccc2[nH]c3ccccc3c12 (configuration not stated)	active: 28.2 µM and inconclusive: 27.3 µM [inhibitor, partial curve, poor fit]	
CN1CCC(NCCC(c2ccc(F)cc2)c2ccc(Cl)cc2)CC1 (configuration not stated)	active: 25.1 µM	
Oc1ccc(-c2nc3c4c(ncn3n2)-c2ccccc2CC42CCCC2)cc1	inconclusive: 39.8 µM [inhibitor, single point]	
CCc1cccc(C)c1Nc1c(-c2ccc(N(C)C)cc2)nc2cnccn12	inconclusive: 39.8 µM [inhibitor, single point]	
CCC(=O)NC(c1cccs1)c1cc([N+](=O)[O-])c2cccnc2c1O (configuration not stated)	inconclusive: 4.47 µM [inhibitor, single point]	
Cc1nc(N=C(N)N)nc2ccccc12	inconclusive: 16.8 µM [inhibitor, partial curve, poor fit]	
COc1ccc(CNC(=O)c2cc3c(=O)n(Cc4ccc(OC)cc4)ccc3nc2C)cc1	inconclusive: 1.12 µM [inhibitor, partial curve, poor fit]	
CCCCCCNC(=O)CC(c1ccccc1)c1cc(Br)ccc1O (configuration not stated)	inconclusive: 39.8 µM [inhibitor, partial curve, poor fit]	

SMILES	Potency	activity change, negative = inhibition
CCN1C(=O)[C@@H]2[C@@H](c3ccc(-c4ccc(Cl)c(Cl)c4)cc3)N3CCC[C@@]3(C(=O)OC)[C@@H]2C1=O	inconclusive: 31.6 µM [inhibitor, partial curve, poor fit]	
CCCCOc1ccc(Cc2c(O)nc(SC)[nH]c2=O)cc1		inactive: -1.61%
CC(C)(C)NC(=O)C(c1ccc(-c2ccccc2)cc1)N(C[C@H]1CC[C@@H]([C@@H]2CC[C@H](CO)O2)O1)C(=O)c1ccc(-c2ccccc2)cc1 (some centres not stated)	inconclusive: 39.8 µM [inhibitor, single point]	
COc1ccc(-n2nc(C(N)=O)c3c2C(=O)N(c2ccc(N4CCCCC4=O)cc2)CC3)cc1		inactive: 5.24%
CCCc1c(-c2ccc(F)cc2)ncn1Cc1ccccc1OC	inconclusive: 39.8 µM [inhibitor, single point]	
Cc1ccc(C(=O)NCCN2C3=NC[C@H](C(C)C)N3C[C@H]2Cc2ccc(O)cc2)cc1Br	inconclusive: 2.82 µM [inhibitor, partial curve, poor fit]	
O=c1cc(-c2c(F)c(F)c(F)c(F)c2F)oc2ccccc12	active: 22.4 µM	
COc1ccc(C(C)=O)c(O)c1	active: 15.3 µM	
CCCN1C(=O)C(=O)c2cc(Cl)ccc21	inconclusive: 39.8 µM [inhibitor, single point]	
C/C(=N/NC(=O)c1ccc(C(C)(C)C)cc1)c1ccccn1	inconclusive: 4.74 µM [inhibitor, full curve, poor fit]	
C=CC[C@@H](CC(=O)N[C@@H](CO)Cc1ccccc1)C(=O)NC[C@@H](OC(=O)[C@@H](CC=C)Cc1ccc(F)cc1)c1ccccc1	inconclusive: 14.1 µM [inhibitor, partial curve]	
COc1cc(/C=N/NC(N)=S)ccc1OCC(=O)Nc1ccc(C)c(C)c1	inconclusive: 39.8 µM [inhibitor, partial curve, poor fit]	
CC(=O)N1CCc2cc(S(=O)(=O)NC(Cc3ccccc3)C(=O)Nc3cc(C)cc(C)c3)ccc21 (configuration not stated)	inconclusive: 12.6 µM [inhibitor, partial curve, poor fit]	
CC1CCN(CCCn2c(SCC(=O)Nc3ccccc3Cl)nc3ccccc3c2=O)CC1	inconclusive: 37.7 µM [inhibitor, single point]	
COc1ccccc1-c1nnc(-c2ccc(N3CCOCC3)cc2)o1		inactive: 34.5%
COC(CN(C(=O)CCl)C(C(=O)NC1CCCCC1)c1ccccc1C)OC (configuration not stated)	inconclusive: 39.8 µM [inhibitor, single point]	
NC(N)=N/N=C/c1ccccc1		inactive: -24.1%
Cc1ccc2c(c1)C1CN(C)CCC1N2S(=O)(=O)c1ccc(Oc2ccc([N+](=O)[O-])cc2)cc1 (configuration not stated)	inconclusive: 15.8 µM [inhibitor, partial curve, poor fit]	
Nc1cccc(-c2cc3c(Oc4cccc(O)c4)ncnc3[nH]2)c1	inconclusive: 9.68 µM [inhibitor, full curve]	
CN(C)c1ccc(-n2cccc2/C=C/[N+](=O)[O-])cc1	inconclusive: 37.7 µM [inhibitor, single point]	
